The list shows a part of the results.
Legend:
Assay in all cases: glycan array binding signal (z-score within array); higher = stronger binding
Settings in all cases: glycan notation: IUPAC condensed, linker removed
Gal6S(b1-4)Glc = biological target: Gal6S(b1-4)Glc
In short: (§1)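 Arrays were curated from the Consortium for Functional Glycomics database, 3228 in total, and kept only where the protein sequence was available. Binding is expressed as a within-array Z-score. This score was averaged across arrays of the same protein sequence at different concentrations or buffers and across linkers, and negative values can be read as non-binding.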

Gal6S(b1-4)Glc6S = biological target: Gal6S(b1-4)Glc6S
In short: as §1

Gal6S(b1-4)GlcNAc = biological target: Gal6S(b1-4)GlcNAc
In short: as §1

Gal6S(b1-4)GlcNAc6S = biological target: Gal6S(b1-4)GlcNAc6S
In short: as §1

GalNAc(a1-3)Gal = biological target: GalNAc(a1-3)Gal
In short: as §1

GalNAc(a1-3)GalNAc = biological target: GalNAc(a1-3)GalNAc
In short: as §1

[1] = biological target: GalNAc(a1-3)GalNAc(b1-3)Gal(a1-4)Gal(b1-4)Glc
In short: as §1

[2] = biological target: GalNAc(a1-3)GalNAc(b1-3)Gal(a1-4)Gal(b1-4)GlcNAc
In short: as §1

GalNAc(b1-3)Gal = biological target: GalNAc(b1-3)Gal
In short: as §1

[3] = biological target: GalNAc(b1-3)Gal(a1-4)Gal(b1-4)GlcNAc
In short: as §1

[4] = biological target: GalNAc(b1-3)Gal(a1-4)Gal(b1-4)GlcNAc(b1-3)Gal(b1-4)Glc
In short: as §1

[5] = biological target: GalNAc(b1-3)Gal(a1-6)Gal(b1-4)Glc
In short: as §1

GalNAc(b1-3)GalNAc = biological target: GalNAc(b1-3)GalNAc
In short: as §1

GalNAc(b1-3)GlcNAc = biological target: GalNAc(b1-3)GlcNAc
In short: as §1

GalNAc(b1-4)Gal(b1-4)Glc = biological target: GalNAc(b1-4)Gal(b1-4)Glc
In short: as §1

GalNAc(b1-4)GlcNAc = biological target: GalNAc(b1-4)GlcNAc
In short: as §1

[6] = biological target: GalNAc(b1-4)GlcNAc(b1-2)Man
In short: as §1

[7] = biological target: GalNAc(b1-4)GlcNAc(b1-2)Man(a1-3)[GalNAc(b1-4)GlcNAc(b1-2)Man(a1-6)]Man(b1-4)GlcNAc(b1-4)GlcNAc
In short: as §1

[8] = biological target: GalNAc(b1-4)GlcNAc(b1-3)GalNAc(b1-4)GlcNAc
In short: as §1

GalNAc(b1-4)GlcNAc6S = biological target: GalNAc(b1-4)GlcNAc6S
In short: as §1

GalNAc(b1-6)GalNAc = biological target: GalNAc(b1-6)GalNAc
In short: as §1

GalNAc3S(b1-4)GlcNAc = biological target: GalNAc3S(b1-4)GlcNAc
In short: as §1

GalNAc3S(b1-4)GlcNAc3S = biological target: GalNAc3S(b1-4)GlcNAc3S
In short: as §1

[9] = biological target: GalNAc3S(b1-4)[Fuc(a1-3)]GlcNAc
In short: as §1

GalNAc4S6S(b1-4)GlcNAc = biological target: GalNAc4S6S(b1-4)GlcNAc
In short: as §1

GalNAc6S(b1-4)GlcNAc = biological target: GalNAc6S(b1-4)GlcNAc
In short: as §1

Glc(a1-4)Glc = biological target: Glc(a1-4)Glc
In short: as §1

[10] = biological target: Glc(a1-4)Glc(a1-4)Glc(a1-4)Glc
In short: as §1

Glc(a1-6)Glc(a1-6)Glc = biological target: Glc(a1-6)Glc(a1-6)Glc
In short: as §1

[11] = biological target: Glc(a1-6)Glc(a1-6)Glc(a1-6)Glc
In short: as §1

Glc(b1-4)Glc = biological target: Glc(b1-4)Glc
In short: as §1

Glc(b1-6)Glc = biological target: Glc(b1-6)Glc
In short: as §1

GlcA(b1-3)Gal = biological target: GlcA(b1-3)Gal
In short: as §1

GlcA(b1-3)GlcNAc = biological target: GlcA(b1-3)GlcNAc
In short: as §1

GlcA(b1-6)Gal = biological target: GlcA(b1-6)Gal
In short: as §1

[12] = biological target: GlcA3S(b1-3)Gal(b1-4)GlcNAc(b1-2)Man
In short: as §1

[13] = biological target: GlcA3S(b1-3)Gal(b1-4)GlcNAc(b1-3)Gal(b1-4)Glc
In short: as §1

[14] = biological target: GlcNAc(a1-3)Gal(b1-4)GlcNAc
In short: as §1

[15] = biological target: GlcNAc(a1-4)Gal(b1-3)GlcNAc
In short: as §1

[16] = biological target: GlcNAc(a1-4)Gal(b1-4)GalNAc
In short: as §1

[17] = biological target: GlcNAc(a1-4)Gal(b1-4)GlcNAc
In short: as §1

[18] = biological target: GlcNAc(a1-4)Gal(b1-4)GlcNAc(b1-3)Gal(b1-4)Glc
In short: as §1

[19] = biological target: GlcNAc(a1-4)Gal(b1-4)GlcNAc(b1-3)Gal(b1-4)GlcNAc
In short: as §1

[20] = biological target: GlcNAc(a1-4)Gal(b1-4)GlcNAc(b1-3)Gal(b1-4)GlcNAc(b1-3)Gal(b1-4)GlcNAc
In short: as §1

[21] = biological target: GlcNAc(a1-4)Gal(b1-4)GlcNAc(b1-3)Gal(b1-4)[Fuc(a1-3)]GlcNAc(b1-3)Gal(b1-4)[Fuc(a1-3)]GlcNAc
In short: as §1

Measured: glycan array binding signal (z-score)

B1: PFL (Pseudomonas fluorescens) (protein)
chain: MSKYAVANQWGGSSAPWHPGGTWVLGARDNQNVVAIEIKSGDGGKSFTGTMTYAGEGPIGFKAQRTGQNQYNVENQWGGNDAPWHPGGKWVIGGRDNQNVIALSVTSSDGGKNLSGTNTYANEGPIGFRGQIE
-0.118: [15]
-0.114: GalNAc(b1-3)GalNAc
-0.103: [7]
-0.11: [5] | GalNAc(b1-4)GlcNAc | Glc(b1-6)Glc | GlcA(b1-6)Gal | [20]
-0.112: Glc(a1-6)Glc(a1-6)Glc | [14] | [16]
-0.108: [2] | [11]
-0.111: [10] | GlcA(b1-3)Gal
-0.107: Gal6S(b1-4)Glc6S
-0.119: GalNAc(b1-3)Gal
-0.113: Gal6S(b1-4)Glc | GalNAc(b1-4)Gal(b1-4)Glc | [13] | [17]
-0.115: Gal6S(b1-4)GlcNAc | [3] | GalNAc3S(b1-4)GlcNAc | GalNAc3S(b1-4)GlcNAc3S | GalNAc6S(b1-4)GlcNAc | Glc(b1-4)Glc | GlcA(b1-3)GlcNAc
-0.117: Gal6S(b1-4)GlcNAc6S | [4] | [6] | GalNAc(b1-4)GlcNAc6S | GalNAc4S6S(b1-4)GlcNAc | [18] | [19]
-0.104: [21]
-0.116: all other assays above

— the supplement of paper PMC8728848
